Some of the results follow. Repeats are few or missing, and single values can be far off.
system: LB2518-MEL; test: cell count relative to DMSO control; melanoma cells; higher = more viable cells; conditions: library dose: standard library concentration; 72 h
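Further: cells treated in 1,536-well plates, then fixed and DAPI-stained, with nuclei counted from automated high-throughput microscope images.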

SMILES | cell count [%]
C=C(c1ccc(C(=O)O)cc1)c1cc2c(cc1C)C(C)(C)CCC2(C)C [Bexarotene] + O=c1cc(-c2cccc3c2Sc2ccccc2S3)oc(N2CCOCC2)c1 [KU55933] (first compound 10 µM, partner dose 5 µM) | 120
CS(=O)(=O)c1ccc(C(=O)Nc2ccc(Cl)c(-c3ccccn3)c2)c(Cl)c1 [vismodegib] + OCc1c[nH]c2ccccc12 [Indole-3-carbinol] (first compound 5 µM, partner dose 4 µM) | 92.9
CN(c1ncccc1CNc1nc(Nc2ccc3c(c2)CC(=O)N3)ncc1C(F)(F)F)S(C)(=O)=O + CC1(C)NC(=O)N(c2ccc([N+](=O)[O-])c(C(F)(F)F)c2)C1=O [nilutamide] (first compound 0.4 µM, partner dose 5 µM) | 76.8
CS(=O)(=O)c1ccc(C(=O)Nc2ccc(Cl)c(-c3ccccn3)c2)c(Cl)c1 [vismodegib] + NCC(=O)Nc1ccc(-n2nc(C(F)(F)F)cc2-c2ccc3c(ccc4ccccc43)c2)cc1 [OSU03012] (first compound 5 µM, partner dose 5 µM) | 94.6
CS(=O)(=O)c1ccc(C(=O)Nc2ccc(Cl)c(-c3ccccn3)c2)c(Cl)c1 [vismodegib] + C[C@]1(c2nc3c(C(N)=O)cccc3[nH]2)CCCN1 [Veliparib] (first compound 5 µM, partner dose 7 µM) | 72.7
NC1(c2ccc(-c3nc4ccn5c(=O)[nH]nc5c4cc3-c3ccccc3)cc2)CCC1 + C=CCn1c(=O)c2cnc(Nc3ccc(N4CCN(C)CC4)cc3)nc2n1-c1cccc(C(C)(C)O)n1 [MK1775] (first compound 2 µM, partner dose 0.1 µM) | 67.4

— the supplement of paper PMC4604168 (melanoma cell lines)
